# Measurements published in PubChem BioAssay AID588855 (National Center for Advancing Translational Sciences (NCATS), 2011).
# The whole screen tested about 410,000 compounds, of which about 5,000 (1.2%) were called active. Inconclusive means that the source gave no clear call. Such entries were picked first, then a sample of the others. Calls come from the whole dose curve; as a rule, active = well fitted inhibition curve with a large enough effect; inconclusive = small, poorly fitted or top-dose-only effect; inactive = no such curve, though single readings can be large or run the other way. Potencies of inconclusive entries are doubtful fits and often do not repeat.
# Assay: qHTS for Inhibitors of TGF-b; note: nearly all actives have a fitted effect of over 65% in size
# Settings: HepG2 CAGA-GFP TGF-b/SMAD3 reporter, GFP fluorescence, 18 h, TGF-beta stimulated, 500 pg/mL final; series mostly up to 46.1 µM; activity, negative = inhibition: at the top concentration
# Outline: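 Per well, imaged GFP fluorescence of HEPG2 CAGA-GFP cells gives the signal; cells get compound, then TGF-beta (500 pg/mL final), 18 h at 37 degrees C; %Activity versus -TGF-beta and +DMSO controls.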
# % is set by controls: 0 for no effect and ±100 for the full control effect; potency is the fitted concentration of half-maximal effect; tags give direction and shape of the fitted curve.
Structure (SMILES),Potency,"activity, negative = inhibition"
Cc1cc2c(cc1C)N[C@]1(C[C@H]3CCCC(=O)N4CC[C@@H](C1)[C@@H]34)C(=NC1CCCCC1)N2,"inconclusive: 7.94 µM [inhibitor, partial curve]",–
COc1ccc2sc3cccc(NCCN(C)C)c3c(=O)c2c1,"inconclusive: 12.6 µM [inhibitor, single point]",–
CC1(Cc2ccccc2C#N)C(=O)Nc2ccc(OC(F)(F)F)cc21 (stereo unspecified),–,inactive: -16.4%
O=S1OC(c2ccccc2)c2cc(Cl)ccc21 (stereo unspecified),"inconclusive: 35.5 µM [inhibitor, single point]",–
CCNc1ccccc(C(=O)/C=C/c2ccc3c(c2)OCO3)c1=O,"inconclusive: 35.5 µM [inhibitor, single point]",–
O=[N+]([O-])c1ccccc1/C=C1\C=Cc2ccccc21,–,inactive: -0.957%
CC(C)CCNC(=O)c1cc(Sc2ccc(F)cc2F)nc2ccccc12,–,inactive: -0.611%
Cc1ccc(N(C(=O)c2csnn2)C(C(=O)NC2CCCC2)c2ccncc2)c(C)c1 (stereo unspecified),–,inactive: 1.31%
O=C(CCNC(=O)N1CC(=O)Nc2ccccc21)NCc1ccccc1Cl,–,inactive: -5.17%
CCN(CC)CCOCCOc1ccc(Cl)c2ccccc12,"inconclusive: 10 µM [inhibitor, partial curve, poor fit]",–
CCOC(=O)c1c(C)c(C(=O)Nc2cc(F)ccc2F)c(C)n1C,–,inactive: -20.9%
Cc1ccc(NC(=O)c2nc(S(=O)(=O)Cc3ccccc3)ncc2Cl)cc1,"inconclusive: 10 µM [inhibitor, partial curve, poor fit]",–
O=Cc1cc2ccccc2cc1O,–,inactive: -27.6%
COc1ccc(O)c(CNn2c(-c3ccc(Br)cc3)nc3ccccc3c2=O)c1,"inconclusive: 22.4 µM [inhibitor, single point]",–
COc1ccc(NC(=O)CN(C)S(=O)(=O)c2ccc3nc(C)sc3c2)cc1,–,inactive: -9.03%
COc1ccc(OCCN2CCN(C(=O)c3ccc(OC(F)F)c(OC)c3)CC2)cc1,"inconclusive: 5.01 µM [inhibitor, partial curve, poor fit]",–
COCCNC(=O)c1cc2cc3ccc(OC)cc3nc2o1,–,inactive: -0.994%
O=C(COc1ccc(Cl)cc1)NCc1nnc(SCC(=O)Nc2ccc(F)cc2F)o1,–,inactive: 3.43%
CC(=O)N1N=C(c2ccc(C(C)(C)C)cc2)OC1(C)C,"inconclusive: 35.5 µM [inhibitor, single point]",–
Cc1ccc2c(CC(=O)OCC(=O)N(CC(C)C)c3c(N)n(Cc4ccccc4)c(=O)[nH]c3=O)coc2c1,"inconclusive: 28.2 µM [inhibitor, single point]",–
COc1cccc(C(=O)NC(=S)Nc2ccccc2N2CCCCC2)c1,"inconclusive: 35.5 µM [inhibitor, single point]",–
Cn1c(SCC(=O)NCc2cccs2)nnc1-c1ccc(O)cc1,"inconclusive: 15.8 µM [inhibitor, single point]",–
Clc1ccccc1CN1CCN(/N=C/C=C/c2ccco2)CC1,"inconclusive: 35.5 µM [inhibitor, single point]",–

Structure (SMILES),Potency,"activity, negative = inhibition"
CNc1snc(C)c1C(=O)OCC(=O)c1ccc(Cl)cc1,–,inactive: -11.6%
O=[N+]([O-])c1ccc(Cc2ccccn2)cc1,–,inactive: -0.282%
N#CCCn1cc(CNCc2cccnc2)c(-c2ccccc2)n1,–,inactive: 36%
O=C(NCc1ccccc1)NC1CC2CCC(C1)N2Cc1ccco1 (stereo unspecified),"inconclusive: 0.631 µM [inhibitor, partial curve, poor fit]",–
Clc1cccc(Nc2c3c(nc4ncnn24)CCC3)c1,"inconclusive: 22.4 µM [inhibitor, single point]",–
Cc1cccc(-n2c(-c3ccco3)nc3c(cnn3-c3ccc(F)cc3)c2=O)c1,"inconclusive: 6.31 µM [inhibitor, partial curve]",–
O=C(Oc1c(CN2CCOCC2)cc(Cl)c2cccnc12)c1cccs1,active: 7.08 µM,–
COc1ccc(/C=C2\Sc3ccc(C(=O)NCCN4CCCCCC4)cc3N(C)C2=O)cc1,"inconclusive: 25.1 µM [inhibitor, single point]",–
Cc1ccc(-c2cc(C(=O)N3CCC(C)CC3)c3ccccc3n2)cc1,"inconclusive: 35.5 µM [inhibitor, single point]",–
NC(=O)/C=C\C(=O)Nc1cccc(C(F)(F)F)c1,"inconclusive: 22.4 µM [inhibitor, single point]",–
CCS(=O)(=O)NCCc1csc2nc(-c3ccc(C)cc3)nn12,–,inactive: -8.06%
O=[N+]([O-])c1ccc(NC(=S)NCc2ccc(F)cc2)cc1,"inconclusive: 22.4 µM [inhibitor, single point]",–
CCOC(=O)c1cnc(SCC(=O)Nc2cc(OC)ccc2OC)nc1N,–,inactive: -3.01%
O=C(CN1N=C(c2ccccc2)CCC1=O)NCCN1CCc2ccccc2C1,"inconclusive: 12.6 µM [inhibitor, single point]",–
COc1ccccc1NC(=O)Cn1c(=O)n(Cc2nc(-c3ccccc3)no2)c(=O)c2ccccc21,–,inactive: -2.06%
COc1cccc(C(=O)NCCN2CCN(c3ccc(Cl)cc3)CC2)c1,"inconclusive: 35.5 µM [inhibitor, single point]",–
NC(=O)C1CCN(C(=O)C2CCC(=O)N(C3CCCCCC3)C2)CC1 (stereo unspecified),"inconclusive: 6.31 µM [inhibitor, single point]",–
Cc1ccccc1S(=O)(=O)N1[C@@H](c2ccc(F)cc2)C(C(=O)O)=CC[C@H]1c1ccc(Cl)cc1,"inconclusive: 35.5 µM [inhibitor, single point]",–
Cc1nn(-c2ccccc2)c2c1C(=O)N(Cc1ccccc1)C(=O)C(C)(C)C2,–,inactive: 5.41%
C=C1SC(Nc2c(C)cccc2C)=NC12CCCCC2,"inconclusive: 10 µM [inhibitor, single point]",–
N/C(=N/OC(=O)c1ccccc1Cl)c1ncc([N+](=O)[O-])s1,"inconclusive: 35.5 µM [inhibitor, single point]",–
CCOc1ccc(CCN2C(=S)N([C@@H](CC(C)C)CN3CCC[C@@H]3CN3C(=S)NC[C@@H]3Cc3ccc(O)cc3)C[C@@H]2CC(C)C)cc1,active: 10 µM,–
CC(C)c1nnc(NC(=O)CCC(=O)Nc2ccc3cn[nH]c3c2)s1,"inconclusive: 0.282 µM [inhibitor, full curve, poor fit]",–
